Experimental data: the RNAGym collection of RNA variant scans (doi:10.7554/elife.90254)
The source gives no read counts; variants with many changes may rest on few reads.

B1: OR4K15 (parent)
chain: GUUAACGGUCAUAGGCCAUGGAAACUAGGAGCACCAUUUCGCUGCCAGUGAAGAAAUGAACAAAGAAAAUCUGGGCCAGGCAGGCAUCAAAAGAAAUAGUCUUGCGCUCAACCAGAAAGUCUGUAAUCAUUUUAAGGGUA

Variants of: B1
Assay: self-cleavage, relative activity (ratio to wild type); higher = more cleavage; in vitro, sequencing; the parent is a self-cleaving ribozyme

Variant | self-cleavage
U102A U108A A129U | 0
A51U A89U U100C A114G A129G | 0.15
A36G A59U C107U | 0
A62G A89G U132C | 1.89
A51U A118U G136U | 1.3
A33G A94G A111G | 0.03
U9A U43A C45U G80A | 0.3
A98G U102C A117G | 1.79
U37C A67U A86U | 2.52
A24U A63C A64G A110G | 0.3
A5G A64G A78U | 0.2
U37C A95G U108C | 0.02
A13G A24G A118G | 0.81
G21A A22G A55C C105A | 0.07
A4G A23G U43C A82G | 0.5
C25A A116G U127C A135G | 0.16
A5G C6U A82G A116G | 0.11
A63G A67G A86G | 1.4
U2C A55G A56G A69G U103C | 0.87
A78U U122C U139C | 0.06
A52G A56G U103C | 1.03

Variant | self-cleavage
A4G A27G A51G A55G A62G A116G | 0.41
A11G U39C A64G A82G U100C | 0.77
U57C A67G C76A | 0.16
A5G U9C A27G A30U A56G A68G G74A | 0.3
A33G U122C U130C U131C A135G | 0
A55G U57C U97C | 0.61
A54G A62G A98C U102C U108C | 0.01
A23G U37C G75U A95G G106A | 0
U49A C61U A117G U133A | 1.76
A60G A64C U72C A94G A118U | 0.05
A59U A90G A110G | 0.1
U9C C107U U108C | 0.04
U2C U37C U38A U57A G79A | 0.29
U19C U38C A47G | 0.7
A94G G119A U127C | 1.49
U2G A5G A82G U122C U139A | 0.48
U3C A27G A60G U87A A94G | 1.11
A22U A56G A68G | 0.87
U9A A36U A78G U139C | 0.17
U49C A59G A92G | 0.52
U102C A125G U131C | 0.73

Variant | self-cleavage
U2C U43C A56G A116U | 0.18
A63G A92G U108C | 0
A63G A89U A116G U127C | 1.16
U19A A67G A91G | 0.55
A11U A23G A33G A68G U132C | 1.14
A56G A67G G75C A95G U120C | 0.19
U39C U43C A47G A96U A117G | 1.37
A62G U130C U131C | 1.04
A5G A67U U122C A129U | 1.13
U38G U49C A94U | 1.23
U39A A55U U132C | 2.45
A51G A82U A95G | 0.42
U2C A95C A96G U100C U132C | 2.99
C16U A52G U70C U102A | 0.79
U87C A91G G99A | 0.04
A4G A59G A82G U108C | 0.05
U26C U39A A96G A118U | 0.3
U19A C32U C71U U103C | 0.27
A11G G44A A59G A64G G83A U87C | 1.61
U3C A36U A63G | 1.24
A11G C46U A64G A117G | 1.57

Variant | self-cleavage
A24G A60G U87A A98G | 0.27
A22U A27G A55G | 1.24
A54U A56G A129G | 0.62
A24G A33G U43C A78G | 0.17
A5C C32A A51U A54U A82U | 0.55
A59G A67G A91G A117G | 1.86
A36C A59U A62G A118G | 1.08
C6U A67G A91G U108A | 0.03
U39C G80A A90G | 0.26
A60G U87A A96G | 1.83
U43C A54G A68G | 0.89
A68G A95G U102C | 1.65
U9C A22G A94G | 1.48
U49C A54G C113U | 0.07
A91U U120C A134G | 0.74
A23U A67G A116G | 0.83
A67G A117G A129G | 1.22
A60G A68G U70C A92G U108A | 0
U9A U38C U43C U49C A62G U127C G137U | 0.43
U38C A55G U87A U97C A117G | 0.3
